Data as given in the supplement of paper PMC11417369.
± gives the standard deviation of the averaged measurements. Some of the results follow.

System: PfAP2-EXP AP2 domain (GST-tagged)
Assay: gcPBM binding intensity (ln(normalized median fluorescence intensity)); higher = stronger DNA binding
In short: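 The binding buffer was 1× PBS containing 1% milk, 0.2 mg/ml BSA, 0.5% salmon testes DNA and 0.03% Triton X-100. In it, GST-tagged P. falciparum DNA-binding domains expressed in E. coli were applied for 1 h to an Agilent 4 × 180k array of primer-extended double-stranded 36-bp intergenic genomic probes plus negative controls. Binding intensity, read with Alexa488 anti-GST antibody and a 488 nm scan, is the highest Masliner-normalised natural-log median intensity across replicate spots of either probe orientation.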

Row | Sequence | gcPBM binding intensity (ln)
1 | ATTCTATACATATATATACACACGTAGTTTCTATTT [CACACA_site2223] | 8.61 ± 0.37
2 | AAAAAAAAAAAGAAGGAAACATTTGACCAAAAATAT [GTGCAC_negctrl_site404] | 8.73 ± 0.58
3 | GTTAATATACTTAATACACACACGAATATATATAAA [CACACA_site1181] | 8.69 ± 0.35
4 | TAACATTATATATATTGTACATAGTAAATATTATAT [XGTACX_site5421] | 8.23 ± 0.47
5 | TGTAATCTGGAGAAAAGTACACAGTATCTGGTAGCT [XGTACX_site2039] | 8.53 ± 0.34
6 | ATTTAAATTATAAAATGTACATTTAACAAATTTTAT [XGTACX_site770] | 8.34 ± 0.4
7 | TTTAATTATTAAATGGTGCACTTGAAATATAAAAAT | 9.63 ± 0.73
8 | CTTTTAATGGTGTAAAGTACTTTCTTAAGGTTCAAA [XGTACX_site8423] | 8.55 ± 0.33
9 | AAGTTATATAAAGGAACACACATTTGATTTTATTTT [CACACA_site6814] | 8.34 ± 0.47
10 | ATATATGGGGCGCAGGAAAAGAGTTTTGGAAATAAA [CACACA_negctrl_site1265] | 9.08 ± 0.49
11 | TATACAACGTTAAGCACACACAAAAAAAATTTAATA [CACACA_site3086] | 8.7 ± 0.49
12 | ATAAAACATAAAAATCGTACAAAGGAGGATATAAGG [XGTACX_site420] | 9.14 ± 0.56
13 | AAAATGATGTTAATTACACACATCATCTCATAAACA [CACACA_site3017] | 8.28 ± 0.4
14 | TGGAGGTCAGTTCACAGTACCCAGAAAACTCTACGA [XGTACX_site2561] | 8.44 ± 0.61
15 | ATTATTTATTATTTCTGTACGTATAAAAATAACATT [XGTACX_site1671] | 8.71 ± 0.38
16 | TAAATATCAAGACACACACACAAAAGTGAATAAATA [CACACA_site7723] | 8.78 ± 0.33
17 | AGAGAAAAAAAAAATTGTACGTATGTAATAATATGC [XGTACX_site2981] | 8.96 ± 0.44
18 | AGATATTATTTATATATTTATATATATATATAGATA [TGCATGCA_negctrl_site77] | 7.96 ± 0.23
19 | TTCTTTTTAAATTACACACACATATATATATGTATA [CACACA_site3515] | 8.66 ± 0.28

Row | Sequence | gcPBM binding intensity (ln)
20 | AAAGTAAAAGAAAGCACACACACATGGATTTATGTA [CACACA_site5997] | 8.53 ± 0.49
21 | TATATATATGTATGTGGTACTTATATTATATACATA [XGTACX_site4550] | 8.41 ± 0.19
22 | TATTTACACCCATGCGCACACATAAATAAATAATAG [CACACA_site5350] | 8.82 ± 0.28
23 | ACAGAAAATAAAATTTGTACATATATAGAATAAAGA [XGTACX_site3014] | 8.76 ± 0.4
24 | ATACATATGGTGGATCGTACATATATATAATATGTA [XGTACX_site8631] | 8.71 ± 0.33
25 | CCATGTAGTGAATAGGTGCATATCAAAAAAAAAAAA | 8.67 ± 0.3
26 | TTATACACAAAAAAAAAAATATATATATATATATAT [XGTACX_negctrl_site5] | 10.2 ± 0.61
27 | TGTTGTATTGAAGCTAAAAAATGAGGCAAAAAAAAA [CACACA_negctrl_site1189] | 8.7 ± 0.49
28 | ACTTCAAAAAAAAAAAAATATATATATATATATTAT [GTGCAC_negctrl_site158] | 8.21 ± 0.38
29 | TTTATATAATATAAATTTTTTTTGCAGTAATAAAAA [TGCATGCA_negctrl_site570] | 8.25 ± 0.24
30 | ATTTATGAGTAATACACACACTTGTGGATATATTAC [CACACA_site7735] | 8.4 ± 0.28
31 | AAAAAAAAAAAATATTGTAGAATATGATGACTTTGT [GTGCAC_negctrl_site554] | 8.37 ± 0.51
32 | TTTTAAATATGCCATACACACTACTATATAATAAAT [CACACA_site5119] | 8.58 ± 0.34
33 | ATTTTATTTTCATATGAACACACATATATATATTAT [CACACA_site8741] | 9.15 ± 0.47
34 | CTGCGTTTAATATGCGTGCACCTTGGTTTTATATCT [GTGCAC_site9525] | 9.16 ± 0.19
35 | AACAACCAAAGGCACACACACAAAAAAAAAAATATA [CACACA_site399] | 8.4 ± 0.63
36 | AAATTTCATGGGTATTGTACATAATTTTATTATATA [XGTACX_site4988] | 8.48 ± 0.37
37 | TGATAAGGATGTGAATTACTCAAAGGAAGTAATCAT [CACACA_negctrl_site1432] | 8.38 ± 0.47
38 | ACAAAACTGTCTTTCACACAGAAATAAAAAAAAAAA [CACACA_site5829] | 8.43 ± 0.59

Row | Sequence | gcPBM binding intensity (ln)
39 | ACATAAGATGAAAAATGTACATTCAAAAAATGAAAT [XGTACX_site3227] | 8.81 ± 0.3
40 | TAAATATATAATAAATGTACATATTAATATTATGGT [XGTACX_site1498] | 8.71 ± 0.33
41 | CAATGTTAACATATTACACACATATGTATTTATAAC [CACACA_site7314] | 8.67 ± 0.34
42 | AAAAAAAATTTAATTGCACACAGGAAAATATAATTT [CACACA_site3810] | 8.61 ± 0.35
43 | TAAATACAGAGGAAAATACACACGTATATATATAAA [CACACA_site3410] | 8.68 ± 0.37
44 | TTAATACCCAGACACACACACACAAAATAAAATACA [CACACA_site7968] | 8.72 ± 0.63
45 | TATAAATATACAAACACACATACAAACATATATATA [CACACA_site1120] | 8.86 ± 0.31
46 | TTTTTTTAATGATATTGTACATTAATAAAAAATATG [XGTACX_site1719] | 8.27 ± 0.21
47 | TCTTTTTCAAGATGACGTACTTAGATTAATATAAAA [XGTACX_site3931] | 8.36 ± 0.39
48 | ATTTGATATATAATAATACACACTTACATAATTAAT [CACACA_site290] | 8.4 ± 0.32
49 | ATATGATCATTTTATCATTTTGCTTTTTCTTTTTTT [CACACA_negctrl_site1325] | 8.77 ± 0.39
50 | AATTTTGGAACGTGCACACATATGTAATATATATAT [CACACA_site3067] | 9.58 ± 0.085
51 | ATCGTGTTAAATGTTGTGCACATATAAATTACAAAA [GTGCAC_site9822] | 9.06 ± 0.014
52 | TTATATTCTTTTCTCTTTCTACTTTTTTTTTTTTTT [XGTACX_negctrl_site317] | 8.6 ± 0.59
53 | AAGAAAAACTTATATATATATATATATATATATATA [TGCATGCA_negctrl_site466] | 10.3 ± 0.29
54 | TCATACATGTATATGTGTACATATAATGTATATTCC [XGTACX_site6082] | 8.3 ± 0.3
55 | AAAAAAAAAAAAAAAAGTACAAAAAGAAGAAAAAAA [XGTACX_site6521] | 8.63 ± 0.52
56 | AAAATATAGGTATGCACACACATATACTTCTGTGCA [CACACA_site1409] | 8.63 ± 0.36
